# PubChem BioAssay AID1671194 (National Center for Advancing Translational Sciences (NCATS), 2021)
# In all, about 140,000 compounds went through this assay and about 240 (0.17%) were called active. The shares of active, inactive and inconclusive entries below differ from those in the screen. Calls follow the shape of the dose curve; as a rule, active = well fitted inhibition curve with a large enough effect; inconclusive = small, poorly fitted or top-dose-only effect; inactive = no such curve, though single readings can be large or run the other way. Where the call is inconclusive, the potency comes from a doubtful curve fit.
# Test: Primary qHTS assay for inhibitors of alpha-synuclein gene (SNCA) expression; also: nearly all actives have a fitted effect of over 45% in size;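 as to activity change, negative = inhibition: plate controls were DMSO cells for no effect and cell-free wells for full effect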
# Conditions: HEK-293 SNCA-luciferase knock-in, luminescence, 24 h; activity change, negative = inhibition: at 57.2 µM (top of the series) unless noted
# Potency is read from the fitted curve at half-maximal effect; tags tell the direction and shape of the fitted curve.
SMILES,Potency,"activity change, negative = inhibition"
COc1ccc(-c2c(C)nn3c4c(cnc23)C(=O)CC(c2ccc(C)cc2)C4)cc1 (configuration not stated),"inconclusive: 7.08 µM [inhibitor, single point]",–
CCOC(=O)C1=C(CN2CCN(c3ccccc3)CC2)NC(=O)NC1c1ccc(C)cc1 (configuration not stated),"inconclusive: 39.8 µM [inhibitor, single point]",–
Cc1ccc(Cl)cc1NC(=O)Cn1c(=O)c(CNc2ccccc2)cc2cc3c(cc21)OCCO3,"inconclusive: 28.2 µM [inhibitor, partial curve, poor fit]",–
CC(C)(Oc1nn(CC2CCOCC2)c2ccccc12)C(=O)NCc1ccncc1,–,inactive: -2.49% [at 87.6 µM]
O=C(CCC1CCN(S(=O)(=O)c2ccccc2)CC1)NC1CCCCCC1,"inconclusive: 39.8 µM [inhibitor, single point]",–
CCC(=O)N1CCC(N2C(=O)C(O)C23CCCCC3)CC1 (configuration not stated),"inconclusive: 3.98 µM [inhibitor, full curve, poor fit]",–
CCCN1C(=O)C(NC(=O)c2ccccc2OC)(C(F)(F)F)C(C(=O)OC)=C1C (configuration not stated),"inconclusive: 2.82 µM [inhibitor, single point]",–
C[C@@H](NC(=O)NC(C)(C)C)c1onc(-c2ccc(F)cc2)c1C(=O)O,"inconclusive: 1.78 µM [inhibitor, full curve, poor fit]",–
COc1ccc(C(=O)N[C@@H]2CCC[C@@H]2C(=O)NC2CCCC2)cc1,"inconclusive: 8.91 µM [inhibitor, single point]",–
CC(C)(C)c1ccc(-c2cc(C[C@H]3CNCC[C@H]3CC(=O)N3CCOCC3)no2)cc1,–,inactive: -6.06% [at 87.6 µM]
COc1ccc(CCNC(=O)c2nc3sccn3c2-c2ccc(C(F)(F)F)cc2)cc1,"inconclusive: 14.1 µM [inhibitor, partial curve, poor fit]",–
Cc1ccc(C(=O)N(CC(C)C)CC2CN(C(=O)c3ccc(Cl)c(Cl)c3)CCO2)cc1 (configuration not stated),–,inactive: -7.69%
COCCNC(=O)C1(C)CN(Cc2ccccc2)Cc2ccc(N3CCOCC3)nc21 (configuration not stated),–,inactive: -9.24% [at 87.6 µM]
COc1ccc(N2CCN(C(=O)CSc3n[nH]c(-c4ccccc4)n3)CC2)cc1,"inconclusive: 6.31 µM [inhibitor, full curve]",–
COc1ccccc1Nc1ccnc(N2CCN(C(=O)c3ccccc3F)CC2)n1,"inconclusive: 8.91 µM [inhibitor, single point]",–
C[C@H]1[C@@H]2[C@H]3OC(=O)[C@@H](C)[C@@H]3CC[C@@]2(C)CC[C@@H]1NC(=O)COc1ccccc1,–,inactive: 2.81% [at 87.6 µM]
COc1ccc(Nc2c3c(nc4ccc(NC(=O)/C=C/c5cc(OC)c(OC)c(OC)c5)cc24)CCCC3)cc1OC,"inconclusive: 39.8 µM [inhibitor, single point]",–
